Assay results reported in PMC12040169 (PLOS Biology, 2025).
The other results are listed elsewhere or left out.

tested on: T1, C. trachomatis L2/434/Bu expressing GFP (CTL2-GFP); parameters: species or system HeLa; C. trachomatis total inclusion area by high-content imaging, normalised to DMSO; conditions: total inclusion area; 28.5 h, 10 µM; inhibitor
T1 construct: L2/434/Bu GFP intracellular growth in HeLa cells
Method in brief: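 Bulk GFP and resorufin signals were read first. Wells were then fixed, stained with Hoechst and imaged to detect GFP inclusions and host nuclei. MICs followed the previously described calculation.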

Compared with `CN(C)Cc1ccccc1Cn1cncc1-c1cnn(C)c1` [CBK281764], `CCN1CCc2cc(-c3cncn3CCCn3nc(C)cc3C)ccc21` [CBK281572] is higher in “% of control remaining” value: 90.259 for the first, 102.233 for the second.

First: Nc1nonc1-c1nc2ccccc2o1 [CBK009829]
Second: NC(=O)c1ccccc1NC(=S)NC(=O)c1cc2ccccc2o1 [CBK265633]
The “% of control remaining” value of the first is lower: 51.0422 for the first, 110.975 for the second.

Going from `Cc1nn(Cc2c(F)cccc2Cl)c(C)c1NC(=O)c1cnn2c(C(F)F)cc(-c3ccccc3)nc12` [CBK267634] to `Cc1nn(CCC(=O)NC(c2ccccc2)c2cccnc2)c(C)c1C` (stereo not shown) [CBK282547], the “% of control remaining” value rises from 81.9764 to 89.4945.

First: O=C(CCCc1ccccc1)Nc1ccc(F)cc1[N+](=O)[O-] [CBK265446]
Second: COc1ccccc1NC(=O)COc1ccc(C)cc1[N+](=O)[O-] [CBK269724]
The “% of control remaining” value of the first is higher: 81.2146 for the first, 67.0553 for the second.

First: COc1cc(NC(=O)Nc2ccccc2OC)c(OC)cc1Cl [CBK270329]
Second: COc1cc(NC(=O)CS(=O)(=O)c2ccccc2)c(OC)cc1Cl [CBK269471]
The “% of control remaining” value of the first is higher: 82.1173 for the first, 73.6939 for the second.

Compared with `O=C(NC(Cc1cccs1)c1nccs1)c1cccnc1` (stereo not shown) [CBK285133], `O=C(NC(c1ccc(F)cc1)c1cccs1)c1ccccn1` (stereo not shown) [CBK295636] is higher in “% of control remaining” value: 75.8392 for the first, 105.702 for the second.

Going from `Cc1ccc(-c2csc3c(=O)[nH]c(N4CCCC(C(=O)NCc5cccnc5)C4)nc23)cc1` (stereo not shown) [CBK215546] to `O=C(Nc1ccc(S(=O)(=O)N2CCCCC2)cc1)c1nc(SCc2ccccc2)ncc1Cl` [CBK268901], the “% of control remaining” value falls from 127.024 to 82.2266.

First: CN(C(=O)CN)c1nc2c(s1)CC(c1ccccc1)CC2 (stereo not shown) [CBK304298C]
Second: O=C1OCC(O)=C1C(c1ccccc1)C1CC1 (stereo not shown) [CBK010731]
The “% of control remaining” value of the first is lower: 59.5674 for the first, 60.8117 for the second.

Going from `O=C1NC(=O)C(c2ccccc2)(c2ccccn2)N1` (stereo not shown) [CBK288455] to `O=C1CCCC[C@@H]2[C@@H](N1)[C@H](c1ccccc1)CN2Cc1ccc2ccccc2n1` [CBK286281], the “% of control remaining” value rises from 73.4838 to 102.841.

Going from `N/C(=N\O)c1ccc(OC(F)(F)F)cc1` [CBK019865] to `CCOC(=O)CCNC(=O)C1(c2ccc(OC)cc2)CC1` [CBK161490], the “% of control remaining” value rises from 81.431 to 90.2531.

Compared with `O=C(O)COCc1cc(-c2ccc3c(c2)OCO3)on1` [CBK286883], `NS(=O)(=O)c1ccc(CCNCc2ccc3c(c2)OCO3)cc1` [CBK269819C] is lower in “% of control remaining” value: 124.236 for the first, 75.2877 for the second.

Compared with `O=C(Nc1cccc(OC(=O)c2cc(S(=O)(=O)N3CCCCC3)ccc2Cl)c1)c1ccco1` [CBK262186], `COc1cccc(C(=O)N2CCC(Cc3ccc(-c4cccc(C)c4)cc3)(C(N)=O)CC2)c1` [CBK285779] is higher in “% of control remaining” value: 38.6739 for the first, 41.5663 for the second.

First: CCOc1ccc2nc(NS(=O)(=O)c3cccc(C(=O)O)c3)sc2c1 [CBK161137]
Second: COc1cccc(OCC(=O)Nc2ccc(Cl)cc2C(=O)O)c1 [CBK264208]
The “% of control remaining” value of the first is lower: 83.7009 for the first, 121.617 for the second.

Compared with `Cc1cc(C)c2c(c1)cc(C)c1nn(CC(=O)NC3CC3)c(=O)n12` [CBK283877], `CCCc1cc(CNC(=O)c2cc(C3CC3)nn2C)on1` [CBK282048] is higher in “% of control remaining” value: 74.8142 for the first, 81.4265 for the second.

Going from `CCCNC(=O)Cn1cnc2sc(C(=O)Nc3ccccc3OC)c(C)c2c1=O` [CBK071910] to `CC(=O)Nc1cccc(NC(=O)c2cnc3sc(C)cn3c2=O)c1` [CBK287715], the “% of control remaining” value falls from 118.46 to 84.0468.

Compared with `CC1(C)Cc2cccc(OCC(=O)O)c2O1` [CBK270161], `CC1(C)CC(=O)C=C(C(=O)NCc2c(F)cccc2F)O1` [CBK153287] is lower in “% of control remaining” value: 109.259 for the first, 102.061 for the second.

First: O=C(Cc1ccc(F)cc1)Nc1nc(-c2cccs2)cs1 [CBK287736]
Second: O=C(NCCc1c[nH]c2ccccc12)c1cccs1 [CBK231038]
The “% of control remaining” value of the first is lower: 83.0434 for the first, 88.8984 for the second.

Going from `COc1cc(NS(=O)(=O)c2ccc(Nc3nc(-c4sc(N)nc4C)cs3)cc2)nc(OC)n1` [CBK262796] to `O=S(=O)(NC1CCCCC1n1cc(-c2ccccc2)nn1)c1ccc(Cl)cc1` (stereo not shown) [CBK266391], the “% of control remaining” value rises from 42.6689 to 145.076.

First: COc1cccc(CN[C@@H]2CCC[C@H]2Cc2cc(C)no2)c1 [CBK283006]
Second: Cc1cccc(OCC2CCCN(C(=O)C3(Cn4cccn4)CC3)C2)c1 (stereo not shown) [CBK306578]
The “% of control remaining” value of the first is higher: 85.9072 for the first, 74.2062 for the second.

First: N#Cc1ccc(CN2C[C@@H]3OCC(=O)N[C@@H]3C2)cc1 [CBK289261]
Second: O=C(CN1CCC(C(=O)c2ccc(F)cc2)CC1)c1ccsc1 [CBK149137]
The “% of control remaining” value of the first is higher: 116.4 for the first, 69.4921 for the second.

First: O=C(OCC#CCSc1nnc(-c2ccccc2)o1)c1ccc([N+](=O)[O-])cc1 [CBK265588]
Second: Cc1ccc(C(=O)C(OC(=O)c2ccc(-c3nnc(-c4ccccc4)o3)cc2)c2ccccc2)cc1 (stereo not shown) [CBK265177]
The “% of control remaining” value of the first is higher: 114.104 for the first, 93.0753 for the second.

Going from `CCN(Cc1ccncc1)C(=O)NCCCN1CCN(C)CC1` [CBK155123] to `CCN(CC(=O)N1CCN(Cc2ccc3c(c2)OCO3)CC1)S(=O)(=O)c1ccccc1` [CBK269436], the “% of control remaining” value falls from 86.6795 to 63.8059.

Compared with `Fc1ccc(-c2cn(-c3ccc4c(c3)CCO4)nn2)cc1` [CBK113132], `O=C(c1ccc2[nH]nnc2c1)N1CCc2ccccc2C1` [CBK200332] is higher in “% of control remaining” value: 57.8078 for the first, 65.6866 for the second.

Going from `Cc1ccccc1Nc1nc(-c2ccc([N+](=O)[O-])cc2)nc2ccccc12` [CBK264803] to `COc1ccc(CC(=O)Nc2ccc(Nc3ccccc3)cc2)cc1` [CBK263884], the “% of control remaining” value falls from 109.338 to 74.1858.

First: Cc1csc(C(Cc2ccsc2)NC(=O)Cn2cccn2)n1 (stereo not shown) [CBK282831]
Second: Cc1ncn(Cc2nc(-c3ccsc3)no2)c(=O)c1C [CBK304158]
The “% of control remaining” value of the first is higher: 100.919 for the first, 42.259 for the second.

Compared with `CC(C)NC(=O)C1CCN(c2nc3ccccc3n2C)CC1` [CBK283986], `CN(C(=O)N1CCC(C(=O)NC(c2ccccc2)c2ccco2)CC1)c1ccccc1` (stereo not shown) [CBK059877] is higher in “% of control remaining” value: 101.763 for the first, 109.415 for the second.

First: S=C(NCCN1CCCCC1)NCc1ccccc1 [CBK263066]
Second: O=CN1CCc2c([nH]c3ccccc23)C12CCCN(CCOc1ccccc1)C2 (stereo not shown) [CBK039412]
The “% of control remaining” value of the first is lower: 76.9217 for the first, 83.2383 for the second.

First: NCc1ccc(CN(Cc2cccc(Cl)c2)C(=O)NC(c2ccccc2)c2ccccc2)cc1 [CBK046087C]
Second: CCOc1cccc(CNc2ccc(O)cc2)c1OCc1ccccc1Cl [CBK074473]
The “% of control remaining” value of the first is lower: 55.3283 for the first, 88.0086 for the second.

First: O=C(Nc1cc(N2CCCS2(=O)=O)ccc1F)c1cccnc1O [CBK306320]
Second: O=S1(=O)CCCN1c1ccc2[nH]ncc2c1 [CBK010263]
The “% of control remaining” value of the first is lower: 97.8132 for the first, 112.389 for the second.

Going from `O=C1CCCN1c1ccc(S(=O)(=O)N2CCN(c3ccccn3)CC2)cc1` [CBK268237] to `Cn1c(=O)[nH]c(=O)c2c1nc(N1CCN(Cc3ccccc3)CC1)n2CCCc1ccccc1` [CBK269529], the “% of control remaining” value falls from 121.087 to 89.1942.

Compared with `CC(C)(C)c1ccc(-c2nc(O)c(CC(=O)O)s2)cc1` [CBK067734], `CC(C)(C)OC(=O)NCc1ccc(-c2cc(Nc3cccc(Cl)c3)ncn2)cc1` [CBK037842] is lower in “% of control remaining” value: 98.0934 for the first, 74.328 for the second.

First: CCCOC1CCCN(C(=O)c2ccc(-c3ccc(Cl)cn3)cc2)C1 (stereo not shown) [CBK306540]
Second: CCOC(=O)c1csc(C2CCCN2C(=O)c2cc(SC)ccc2Cl)n1 (stereo not shown) [CBK306491]
The “% of control remaining” value of the first is lower: 67.0931 for the first, 104.391 for the second.

First: CC1(C)Cc2c(c(-c3ccco3)nc3[nH]nc(N)c23)CO1 [CBK009252]
Second: Cc1ccnc(SCc2c(Cl)cccc2[N+](=O)[O-])n1 [CBK269632]
The “% of control remaining” value of the first is higher: 108.891 for the first, 64.1712 for the second.

Compared with `c1coc(CCC2NCCn3cccc32)c1` (stereo not shown) [CBK023964F], `Cc1cc(C(=O)CSc2nncs2)c(C)n1C(C)c1ccccc1` (stereo not shown) [CBK297934] is lower in “% of control remaining” value: 124.404 for the first, 79.7355 for the second.

Going from `CCS(=O)(=O)N1CC2CCCC(O)(c3cccc(F)c3)C2C1` (stereo not shown) [CBK283108] to `O=C(CCC(=O)N1CCC2(CC1)CC(=O)c1ccccc1O2)NCC1CCCO1` (stereo not shown) [CBK156525], the “% of control remaining” value falls from 94.5872 to 94.2018.

First: CN(C)CCOc1ncccc1OCCO [CBK000655F]
Second: CCc1nc(-c2ccc(N(C)C)nc2)n(C)n1 [CBK306897]
The “% of control remaining” value of the first is higher: 88.0654 for the first, 73.2237 for the second.

First: Cc1nnc(Sc2nc(CN3CCOCC3)nc3scc(-c4cccs4)c23)n1C [CBK297092]
Second: O=C(CN1CCOCC1)Nc1ccc(NC(=O)CN2CCOCC2)cc1 [CBK265045]
The “% of control remaining” value of the first is lower: 79.4451 for the first, 91.5146 for the second.

Going from `Nc1c(Cl)cc(NC(=O)CCCC(=O)O)cc1Cl` [CBK263957] to `Cc1oc(C(=O)O)cc1CSC(C)C(=O)O` (stereo not shown) [CBK263556], the “% of control remaining” value falls from 122.544 to 104.786.

Going from `NC1CCN(C(=O)c2cn(C3CC3)c3cc(Cl)c(F)cc3c2=O)CC1` [CBK168626] to `O=C(c1cc2c([nH]1)CCCC2)N1CCC(CCN2CCOCC2)CC1` [CBK281869], the “% of control remaining” value rises from 108.987 to 115.439.

Going from `O=C(Nc1ccc(Cl)cc1)NC1(C(=O)NCc2ccncc2)CCCCC1` [CBK174259] to `O=C(O)Cn1nnc(-c2ccc(OCc3ccccc3)cc2)n1` [CBK269755], the “% of control remaining” value falls from 88.4974 to 45.2549.

First: CCCCC12CN3CC(C)(CN(C1)C31C(=O)N(C)c3ccc(C)cc31)C2=O (stereo not shown) [CBK267286]
Second: Cc1noc(C2COCCN2C(=O)c2cc(Cl)cn2C)n1 (stereo not shown) [CBK305120]
The “% of control remaining” value of the first is higher: 98.2429 for the first, 33.1382 for the second.
